# Measurements published in the supplement of paper PMC8728848.
# The list shows a part of the results.
# B1: HHA (Hippeastrum hybrid) (protein)
# chain: MQQDCNLVLYDVDKPIWASNTGGLARDCHLNMQSDGNLVVYAPRNQVIWASNTQGENGNYVCILQKDRNVVIYGTARWATGTNIHGAGIVGVPGSAPQNTTAEMIKLVRKYLITK
# How the values were obtained:
# Assay in all cases: glycan array binding signal (z-score within array); higher = stronger binding
# Conditions in all cases: glycan notation: IUPAC condensed, linker removed
# [1] = target: Gal(b1-3)GlcNAc(b1-3)GalNAc
# In short: (§1)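 Glycan array data came from 3228 arrays in the Consortium for Functional Glycomics database, and only arrays with an available protein sequence were kept. Glycan names were put into IUPAC-condensed notation, and columns mapping to the same glycan were averaged. The binding signal is a within-array Z-score, averaged across arrays of one protein sequence run at different concentrations or buffers and across linkers. A negative Z-score can be read as non-binding.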
# [2] = target: Gal(b1-3)GlcNAc(b1-6)Gal(b1-4)GlcNAc
# In short: as §1
# [3] = target: Gal(b1-3)GlcNAc(b1-6)GalNAc
# In short: as §1
# [4] = target: Gal(b1-3)GlcNAc(b1-6)[Gal(b1-3)]GalNAc
# In short: as §1
# Gal(b1-3)GlcNAc6S = target: Gal(b1-3)GlcNAc6S
# In short: as §1
# [5] = target: Gal(b1-3)[Fuc(a1-4)]GlcNAc
# In short: as §1
# [6] = target: Gal(b1-3)[Fuc(a1-4)]GlcNAc(b1-2)Man
# In short: as §1
# [7] = target: Gal(b1-3)[Fuc(a1-4)]GlcNAc(b1-2)Man(a1-3)[Gal(b1-3)[Fuc(a1-4)]GlcNAc(b1-2)Man(a1-6)]Man(b1-4)GlcNAc(b1-4)[Fuc(a1-6)]GlcNAc
# In short: as §1
# [8] = target: Gal(b1-3)[Fuc(a1-4)]GlcNAc(b1-3)Gal(b1-3)[Fuc(a1-4)]GlcNAc
# In short: as §1
# [9] = target: Gal(b1-3)[Fuc(a1-4)]GlcNAc(b1-3)Gal(b1-4)GlcNAc
# In short: as §1
# [10] = target: Gal(b1-3)[Fuc(a1-4)]GlcNAc(b1-3)Gal(b1-4)[Fuc(a1-3)]GlcNAc
# In short: as §1
# [11] = target: Gal(b1-3)[Fuc(a1-4)]GlcNAc(b1-6)GalNAc
# In short: as §1
# [12] = target: Gal(b1-3)[GlcNAc(b1-6)]GalNAc
# In short: as §1
# [13] = target: Gal(b1-3)[Neu5Ac(a2-6)]GalNAc
# In short: as §1
# [14] = target: Gal(b1-3)[Neu5Ac(a2-6)]GlcNAc(b1-4)Gal(b1-4)Glc
# In short: as §1
# [15] = target: Gal(b1-3)[Neu5Ac(a2-6)]GlcNAc(b1-6)Gal(b1-4)Glc
# In short: as §1
# [16] = target: Gal(b1-3)[Neu5Ac(b2-6)]GalNAc
# In short: as §1
# Gal(b1-4)Gal = target: Gal(b1-4)Gal
# In short: as §1
# [17] = target: Gal(b1-4)GalNAc(a1-3)[Fuc(a1-2)]Gal(b1-4)GlcNAc
# In short: as §1
# [18] = target: Gal(b1-4)GalNAc(b1-3)[Fuc(a1-2)]Gal(b1-4)GlcNAc
# In short: as §1
# Gal(b1-4)Glc = target: Gal(b1-4)Glc
# In short: as §1
# Gal(b1-4)Glc6S = target: Gal(b1-4)Glc6S
# In short: as §1
# Gal(b1-4)GlcNAc = target: Gal(b1-4)GlcNAc
# In short: as §1
# [19] = target: Gal(b1-4)GlcNAc(a1-6)Gal(b1-4)GlcNAc
# In short: as §1
# Gal(b1-4)GlcNAc(b1-2)Man = target: Gal(b1-4)GlcNAc(b1-2)Man
# In short: as §1
# [20] = target: Gal(b1-4)GlcNAc(b1-2)Man(a1-3)Man(b1-4)GlcNAc(b1-4)GlcNAc
# In short: as §1
# [21] = target: Gal(b1-4)GlcNAc(b1-2)Man(a1-3)[Gal(b1-4)GlcNAc(b1-2)Man(a1-6)]Man(b1-4)GlcNAc(b1-4)GlcNAc
# In short: as §1
# [22] = target: Gal(b1-4)GlcNAc(b1-2)Man(a1-3)[Gal(b1-4)GlcNAc(b1-2)Man(a1-6)]Man(b1-4)GlcNAc(b1-4)[Fuc(a1-6)]GlcNAc
# In short: as §1
# [23] = target: Gal(b1-4)GlcNAc(b1-2)Man(a1-3)[Gal(b1-4)GlcNAc(b1-2)Man(a1-6)][Gal(b1-4)GlcNAc(b1-4)]Man(b1-4)GlcNAc(b1-4)[Fuc(a1-6)]GlcNAc
# In short: as §1
# [24] = target: Gal(b1-4)GlcNAc(b1-2)Man(a1-3)[Gal(b1-4)GlcNAc(b1-2)Man(a1-6)][GlcNAc(b1-4)]Man(b1-4)GlcNAc(b1-4)[Fuc(a1-6)]GlcNAc
# In short: as §1
# [25] = target: Gal(b1-4)GlcNAc(b1-2)Man(a1-3)[GlcNAc(b1-2)Man(a1-6)]Man(b1-4)GlcNAc(b1-4)GlcNAc
# In short: as §1
# [26] = target: Gal(b1-4)GlcNAc(b1-2)Man(a1-3)[GlcNAc(b1-4)][Gal(b1-4)GlcNAc(b1-2)Man(a1-6)]Man(b1-4)GlcNAc(b1-4)GlcNAc
# In short: as §1
# [27] = target: Gal(b1-4)GlcNAc(b1-2)Man(a1-3)[Man(a1-6)]Man(b1-4)GlcNAc(b1-4)GlcNAc
# In short: as §1
# [28] = target: Gal(b1-4)GlcNAc(b1-2)Man(a1-6)Man(b1-4)GlcNAc(b1-4)GlcNAc
# In short: as §1
# [29] = target: Gal(b1-4)GlcNAc(b1-2)Man(a1-6)[GlcNAc(b1-2)Man(a1-3)]Man(b1-4)GlcNAc(b1-4)GlcNAc
# In short: as §1
# [30] = target: Gal(b1-4)GlcNAc(b1-2)Man(a1-6)[Man(a1-3)]Man(b1-4)GlcNAc(b1-4)GlcNAc
# In short: as §1
# [31] = target: Gal(b1-4)GlcNAc(b1-2)[Gal(b1-4)GlcNAc(b1-4)]Man(a1-3)[Gal(b1-4)GlcNAc(b1-2)Man(a1-6)]Man(b1-4)GlcNAc(b1-4)GlcNAc
# In short: as §1
# [32] = target: Gal(b1-4)GlcNAc(b1-2)[Gal(b1-4)GlcNAc(b1-4)]Man(a1-3)[Gal(b1-4)GlcNAc(b1-2)[Gal(b1-4)GlcNAc(b1-6)]Man(a1-6)]Man(b1-4)GlcNAc(b1-4)GlcNAc
# In short: as §1
# [33] = target: Gal(b1-4)GlcNAc(b1-2)[Gal(b1-4)GlcNAc(b1-4)]Man(a1-3)[GlcNAc(b1-4)][Gal(b1-4)GlcNAc(b1-2)Man(a1-6)]Man(b1-4)GlcNAc(b1-4)GlcNAc
# In short: as §1
# [34] = target: Gal(b1-4)GlcNAc(b1-2)[Gal(b1-4)GlcNAc(b1-4)]Man(a1-3)[GlcNAc(b1-4)][Gal(b1-4)GlcNAc(b1-2)[Gal(b1-4)GlcNAc(b1-6)]Man(a1-6)]Man(b1-4)GlcNAc(b1-4)GlcNAc
# In short: as §1
# [35] = target: Gal(b1-4)GlcNAc(b1-2)[Gal(b1-4)GlcNAc(b1-6)]Man(a1-6)[Gal(b1-4)GlcNAc(b1-2)Man(a1-3)]Man(b1-4)GlcNAc(b1-4)GlcNAc
# In short: as §1
# [36] = target: Gal(b1-4)GlcNAc(b1-2)[Gal(b1-4)GlcNAc(b1-6)]Man(a1-6)[Gal(b1-4)GlcNAc(b1-2)Man(a1-3)]Man(b1-4)GlcNAc(b1-4)[Fuc(a1-6)]GlcNAc
# In short: as §1
# [37] = target: Gal(b1-4)GlcNAc(b1-2)[Gal(b1-4)GlcNAc(b1-6)]Man(a1-6)[GlcNAc(b1-4)][Gal(b1-4)GlcNAc(b1-2)Man(a1-3)]Man(b1-4)GlcNAc(b1-4)GlcNAc
# In short: as §1
# [38] = target: Gal(b1-4)GlcNAc(b1-2)[Gal(b1-4)GlcNAc(b1-6)]Man(a1-6)[GlcNAc(b1-4)][Gal(b1-4)GlcNAc(b1-2)[Gal(b1-4)GlcNAc(b1-4)]Man(a1-3)]Man(b1-4)GlcNAc(b1-4)[Fuc(a1-6)]GlcNAc
# In short: as §1
# [39] = target: Gal(b1-4)GlcNAc(b1-3)Gal(b1-3)GalNAc
# In short: as §1
binder,measurement,setting,value
B1,glycan array binding signal (z-score),[1],0.808
same,glycan array binding signal (z-score),[2],-0.211
same,glycan array binding signal (z-score),[3],-0.211
same,glycan array binding signal (z-score),[4],-0.071
same,glycan array binding signal (z-score),Gal(b1-3)GlcNAc6S,-0.216
same,glycan array binding signal (z-score),[5],-0.212
same,glycan array binding signal (z-score),[6],-0.207
same,glycan array binding signal (z-score),[7],1.39
same,glycan array binding signal (z-score),[8],-0.191
same,glycan array binding signal (z-score),[9],-0.255
same,glycan array binding signal (z-score),[10],-0.212
same,glycan array binding signal (z-score),[11],-0.185
same,glycan array binding signal (z-score),[12],-0.213
same,glycan array binding signal (z-score),[13],-0.21
same,glycan array binding signal (z-score),[14],-0.214
same,glycan array binding signal (z-score),[15],-0.251
same,glycan array binding signal (z-score),[16],-0.22
same,glycan array binding signal (z-score),Gal(b1-4)Gal,-0.208
same,glycan array binding signal (z-score),[17],-0.22
same,glycan array binding signal (z-score),[18],-0.215
same,glycan array binding signal (z-score),Gal(b1-4)Glc,-0.212
same,glycan array binding signal (z-score),Gal(b1-4)Glc6S,-0.205
same,glycan array binding signal (z-score),Gal(b1-4)GlcNAc,-0.196
same,glycan array binding signal (z-score),[19],-0.208
same,glycan array binding signal (z-score),Gal(b1-4)GlcNAc(b1-2)Man,-0.197
same,glycan array binding signal (z-score),[20],0.485
same,glycan array binding signal (z-score),[21],0.963
same,glycan array binding signal (z-score),[22],-0.004
same,glycan array binding signal (z-score),[23],-0.198
same,glycan array binding signal (z-score),[24],-0.22
same,glycan array binding signal (z-score),[25],0.444
same,glycan array binding signal (z-score),[26],-0.212
same,glycan array binding signal (z-score),[27],2.08
same,glycan array binding signal (z-score),[28],0.747
same,glycan array binding signal (z-score),[29],0.019
same,glycan array binding signal (z-score),[30],3.97
same,glycan array binding signal (z-score),[31],0.094
same,glycan array binding signal (z-score),[32],0.218
same,glycan array binding signal (z-score),[33],-0.21
same,glycan array binding signal (z-score),[34],-0.207
same,glycan array binding signal (z-score),[35],-0.199
same,glycan array binding signal (z-score),[36],-0.199
same,glycan array binding signal (z-score),[37],-0.204
same,glycan array binding signal (z-score),[38],-0.212
same,glycan array binding signal (z-score),[39],0.446
